# Measured values reported in the supplement of paper PMC8728848.
# The other results are listed elsewhere or left out.
# Key:
# Experiment in all cases: glycan array binding signal (z-score within array); higher = stronger binding
# Details in all cases: glycan notation: IUPAC condensed, linker removed
# [1] = target: Kdn(a2-3)Gal(b1-4)Glc
# In short: (§1)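 Glycan array data were curated from 3228 arrays in the Consortium for Functional Glycomics database and kept only where the protein sequence was available. Glycan names were converted to IUPAC-condensed notation, and columns mapping to the same glycan were averaged. The binding signal is a within-array Z-score, averaged across arrays of the same protein sequence at different concentrations or buffers and across linkers. Negative Z-scores can be read as non-binding.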
# [2] = target: Kdn(a2-3)Gal(b1-4)GlcNAc
# In short: as §1
# [3] = target: Kdn(a2-3)Gal(b1-4)[Fuc(a1-3)]GlcNAc
# In short: as §1
# [4] = target: Kdn(a2-6)Gal(b1-4)GlcNAc
# In short: as §1
# [5] = target: Man(a1-2)Man(a1-2)Man(a1-3)Man
# In short: as §1
# [6] = target: Man(a1-2)Man(a1-2)Man(a1-6)[Man(a1-3)]Man
# In short: as §1
# [7] = target: Man(a1-2)Man(a1-3)Man
# In short: as §1
# [8] = target: Man(a1-2)Man(a1-3)[Man(a1-2)Man(a1-6)]Man
# In short: as §1
# [9] = target: Man(a1-2)Man(a1-3)[Man(a1-2)Man(a1-6)]Man(a1-6)[Man(a1-2)Man(a1-2)Man(a1-3)]Man
# In short: as §1
# [10] = target: Man(a1-2)Man(a1-3)[Man(a1-2)Man(a1-6)]Man(a1-6)[Man(a1-2)Man(a1-2)Man(a1-3)]Man(b1-4)GlcNAc(b1-4)GlcNAc
# In short: as §1
# [11] = target: Man(a1-2)Man(a1-3)[Man(a1-6)]Man(a1-6)[Man(a1-2)Man(a1-3)]Man(b1-4)GlcNAc(b1-4)GlcNAc
# In short: as §1
# [12] = target: Man(a1-2)Man(a1-6)[Man(a1-3)]Man(a1-6)[Man(a1-2)Man(a1-2)Man(a1-3)]Man
# In short: as §1
# [13] = target: Man(a1-2)Man(a1-6)[Man(a1-3)]Man(a1-6)[Man(a1-2)Man(a1-2)Man(a1-3)]Man(b1-4)GlcNAc(b1-4)GlcNAc
# In short: as §1
# [14] = target: Man(a1-3)[Man(a1-6)]Man
# In short: as §1
# [15] = target: Man(a1-3)[Man(a1-6)]Man(a1-6)[Man(a1-2)Man(a1-3)]Man(b1-4)GlcNAc(b1-4)GlcNAc
# In short: as §1
# [16] = target: Man(a1-3)[Man(a1-6)]Man(a1-6)[Man(a1-3)]Man
# In short: as §1
# [17] = target: Man(a1-3)[Man(a1-6)]Man(a1-6)[Man(a1-3)]Man(b1-4)GlcNAc(b1-4)GlcNAc
# In short: as §1
# [18] = target: Man(a1-3)[Man(a1-6)]Man(b1-4)GlcNAc(b1-4)GlcNAc
# In short: as §1
# [19] = target: Man(a1-6)Man
# In short: as §1
# [20] = target: Man(b1-4)GlcNAc
# In short: as §1
# [21] = target: Neu5Ac(a2-3)Gal
# In short: as §1
# [22] = target: Neu5Ac(a2-3)Gal(b1-3)GalNAc
# In short: as §1
# [23] = target: Neu5Ac(a2-3)Gal(b1-3)GalNAc(b1-3)Gal(a1-4)Gal(b1-4)Glc
# In short: as §1
# [24] = target: Neu5Ac(a2-3)Gal(b1-3)GalNAc(b1-4)[Neu5Ac(a2-3)]Gal(b1-4)Glc
# In short: as §1
# [25] = target: Neu5Ac(a2-3)Gal(b1-3)GalNAc(b1-4)[Neu5Ac(a2-8)Neu5Ac(a2-3)]Gal(b1-4)Glc
# In short: as §1
# [26] = target: Neu5Ac(a2-3)Gal(b1-3)GalNAc6S
# In short: as §1
# [27] = target: Neu5Ac(a2-3)Gal(b1-3)GlcNAc
# In short: as §1
# [28] = target: Neu5Ac(a2-3)Gal(b1-3)GlcNAc(b1-2)Man(a1-3)[Neu5Ac(a2-3)Gal(b1-3)GlcNAc(b1-2)Man(a1-6)]Man(b1-4)GlcNAc(b1-4)GlcNAc
# In short: as §1
# [29] = target: Neu5Ac(a2-3)Gal(b1-3)GlcNAc(b1-3)Gal(b1-3)GlcNAc
# In short: as §1
# [30] = target: Neu5Ac(a2-3)Gal(b1-3)GlcNAc(b1-3)Gal(b1-4)GlcNAc
# In short: as §1
# [31] = target: Neu5Ac(a2-3)Gal(b1-3)GlcNAc(b1-3)GalNAc
# In short: as §1
# [32] = target: Neu5Ac(a2-3)Gal(b1-3)GlcNAc6S
# In short: as §1
# [33] = target: Neu5Ac(a2-3)Gal(b1-3)[Fuc(a1-4)]GlcNAc
# In short: as §1
# [34] = target: Neu5Ac(a2-3)Gal(b1-3)[Fuc(a1-4)]GlcNAc(b1-3)Gal(b1-3)[Fuc(a1-4)]GlcNAc
# In short: as §1
# [35] = target: Neu5Ac(a2-3)Gal(b1-3)[Fuc(a1-4)]GlcNAc(b1-3)Gal(b1-4)[Fuc(a1-3)]GlcNAc
# In short: as §1
# [36] = target: Neu5Ac(a2-3)Gal(b1-3)[Neu5Ac(a2-3)Gal(b1-4)]GlcNAc
# In short: as §1
# [37] = target: Neu5Ac(a2-3)Gal(b1-3)[Neu5Ac(a2-6)]GalNAc
# In short: as §1
binder,measurement,setting,value
"ASAL (Allium sativum), P83886 (protein) MGRTTSSPKAMMRIATVAAILTILASTCMARNVLTNGEGLYAGQSLDVEQYKFIMQDDCNLVLYEYSTPIWASNTGVTGKNGCRAVMQRDGNFVVYDVNGRPVWASNSVRGNGNYILVLQKDRNVVIYGSDIWSTGTYRRSVGGAVVMAMNGTVDGGSVIGPVVVNQNVTAAIRKVGTGAA",glycan array binding signal (z-score),[1],-0.25
same,glycan array binding signal (z-score),[2],-0.273
same,glycan array binding signal (z-score),[3],-0.201
same,glycan array binding signal (z-score),[4],-0.255
same,glycan array binding signal (z-score),[5],2.05
same,glycan array binding signal (z-score),[6],2.53
same,glycan array binding signal (z-score),[7],-0.312
same,glycan array binding signal (z-score),[8],0.693
same,glycan array binding signal (z-score),[9],4.09
same,glycan array binding signal (z-score),[10],0.295
same,glycan array binding signal (z-score),[11],1.68
same,glycan array binding signal (z-score),[12],3.13
same,glycan array binding signal (z-score),[13],3.67
same,glycan array binding signal (z-score),[14],-0.229
same,glycan array binding signal (z-score),[15],1.47
same,glycan array binding signal (z-score),[16],-0.135
same,glycan array binding signal (z-score),[17],0.276
same,glycan array binding signal (z-score),[18],1.42
same,glycan array binding signal (z-score),[19],-0.26
same,glycan array binding signal (z-score),[20],-0.236
same,glycan array binding signal (z-score),[21],-0.234
same,glycan array binding signal (z-score),[22],-0.257
same,glycan array binding signal (z-score),[23],-0.272
same,glycan array binding signal (z-score),[24],-0.279
same,glycan array binding signal (z-score),[25],-0.186
same,glycan array binding signal (z-score),[26],-0.262
same,glycan array binding signal (z-score),[27],-0.245
same,glycan array binding signal (z-score),[28],-0.226
same,glycan array binding signal (z-score),[29],-0.268
same,glycan array binding signal (z-score),[30],-0.184
same,glycan array binding signal (z-score),[31],-0.269
same,glycan array binding signal (z-score),[32],-0.278
same,glycan array binding signal (z-score),[33],-0.285
same,glycan array binding signal (z-score),[34],-0.212
same,glycan array binding signal (z-score),[35],-0.189
same,glycan array binding signal (z-score),[36],-0.222
same,glycan array binding signal (z-score),[37],-0.269
